According to the supplement of paper PMC4967469:
pIC50: −log10 of the molar value. Lines with a small IC50 respond at low doses; a limit (>, <) means that the fit lies beyond the doses tested. AUC, from the same fit, is the share of area under the viability curve across the 256-fold dose range; values near 1 show little effect. For some of these results: Any top dose called inferred comes from the curve model; the source does not state it. For some of these results: An entry number marks a drug with two screens in the source, which often give different values.

How the values were obtained:
Assay in all cases: Viability of human cancer cell lines after 72 h of drug (GDSC screen)
(5Z)-7-Oxozeaenol = compound: COc1cc(O)c2c(c1)/C=C/C[C@H](O)[C@H](O)C(=O)/C=C\C[C@H](C)OC2=O [(5Z)-7-Oxozeaenol]; details: top dose 10 µM; top dose inferred
Method: (§1)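 Human cancer cell lines in 384-well plates, medium with 10% serum, drug for 72 h over a 256-fold dose range (nine 2-fold or five 4-fold steps up to the top dose). Adherent lines were fixed and stained with the nucleic acid dye Syto60, suspension lines read with resazurin; signal relative to control wells, capped at 0 and 100%. One two-parameter sigmoid per drug and line, fitted in a mixed model over all curves with the slope shared within a line.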

CHIR-99021 = compound: Cc1cnc(-c2cnc(NCCNc3ccc(C#N)cn3)nc2-c2ccc(Cl)cc2Cl)[nH]1 [CHIR-99021]
Method: as §1

Cytarabine = compound: Nc1ccn([C@@H]2O[C@H](CO)[C@@H](O)[C@@H]2O)c(=O)n1 [Cytarabine]; details: top dose 2 µM
Method: as §1

Thapsigargin = compound: C/C=C(/C)C(=O)O[C@H]1C(C)=C2[C@H]([C@@H]1OC(=O)CCCCCCC)[C@@](C)(OC(C)=O)C[C@H](OC(=O)CCC)[C@@]1(O)[C@H]2OC(=O)[C@@]1(C)O [Thapsigargin]; details: top dose 0.512 µM; top dose inferred
Method: as §1

GSK269962A = compound: CCn1c(-c2nonc2N)nc2cnc(Oc3cccc(NC(=O)c4ccc(OCCN5CCOCC5)cc4)c3)cc21 [GSK269962A]; details: top dose 5 µM; screen: GDSC drug entry 1192; top dose inferred
Method: as §1

KU-55933 = compound: O=c1cc(-c2cccc3c2Sc2ccccc2S3)oc(N2CCOCC2)c1 [KU-55933]; details: top dose 10 µM
Method: as §1

Zibotentan = compound: COc1nc(C)cnc1NS(=O)(=O)c1cccnc1-c1ccc(-c2nnco2)cc1 [Zibotentan]; details: top dose 20 µM; top dose inferred
Method: as §1

CP466722 = compound: COc1cc2ncnc(-n3nc(-c4ccccn4)nc3N)c2cc1OC [CP466722]; details: top dose 16 µM; top dose inferred
Method: as §1

ABT-869 = compound: Cc1ccc(F)c(NC(=O)Nc2ccc(-c3cccc4[nH]nc(N)c34)cc2)c1 [ABT-869]; details: top dose 1.024 µM; top dose inferred
Method: as §1

QL-X-138 = compound: C=CC(=O)Nc1cc(-n2c(=O)ccc3cnc4ccc(-c5cn[nH]c5)cc4c32)ccc1C [QL-X-138]; details: top dose 10.24 µM; top dose inferred
Method: as §1

MPS-1-IN-1 = compound: COc1cc(N2CCC(O)CC2)ccc1Nc1cc(Nc2ccccc2S(=O)(=O)C(C)C)c2cc[nH]c2n1 [MPS-1-IN-1]; details: top dose 20 µM; top dose inferred
Method: as §1

ABT-888 = compound: C[C@]1(c2nc3c(C(N)=O)cccc3[nH]2)CCCN1 [ABT-888]; details: top dose 5 µM; top dose inferred
Method: as §1

[1] = top dose 2.56 µM, screen: GDSC drug entry 154
[2] = top dose 10 µM, screen: GDSC drug entry 1241, top dose inferred

Cell Line	AUC ((5Z)-7-Oxozeaenol)	pIC50 ((5Z)-7-Oxozeaenol)	AUC (CHIR-99021; [1])	pIC50 (CHIR-99021; [1])	AUC (CHIR-99021; [2])	pIC50 (CHIR-99021; [2])	AUC (Cytarabine)	pIC50 (Cytarabine)	AUC (Thapsigargin)	pIC50 (Thapsigargin)	AUC (GSK269962A)	pIC50 (GSK269962A)	AUC (KU-55933)	pIC50 (KU-55933)	AUC (Zibotentan)	pIC50 (Zibotentan)	AUC (CP466722)	pIC50 (CP466722)	AUC (ABT-869)	pIC50 (ABT-869)	AUC (QL-X-138)	pIC50 (QL-X-138)	AUC (MPS-1-IN-1)	pIC50 (MPS-1-IN-1)	AUC (ABT-888)	pIC50 (ABT-888)
HT-3 (cervix, adherent)	0.772	5.41	0.918	< 5.59	0.946	< 5.00	0.752	6.17	0.432	7.68	0.976	< 5.30	0.963	< 5.00	0.987	< 4.70	0.898	< 4.80	0.977	< 5.99	0.777	5.38	0.93	< 4.70	0.987	< 5.30
HT-115 (large intestine, adherent)	0.487	6.24	0.991	< 5.59	0.949	< 5.00	0.856	5.86	0.879	6.35	0.794	5.68	0.987	< 5.00	0.985	< 4.70	0.945	< 4.80	0.991	< 5.99	0.988	< 4.99	0.971	< 4.70	0.991	< 5.30
HT-1376 (bladder, adherent)	0.754	5.41	0.968	< 5.59	0.978	< 5.00	0.788	5.98	0.327	8.02	0.92	< 5.30	0.919	< 5.00	0.985	< 4.70	0.985	< 4.80	0.983	< 5.99	0.984	< 4.99	0.985	< 4.70	0.984	< 5.30
Hs633T (fibrosarcoma, adherent)	0.217	6.94	0.94	< 5.59	0.904	5.04	0.428	7.08	0.162	8.41	0.309	6.99	0.917	< 5.00	0.992	< 4.70	0.813	5.17	0.992	< 5.99	0.596	5.95	0.867	4.89	0.981	< 5.30
Hs683 (glioma, adherent)	0.797	5.32	0.968	< 5.59	0.895	< 5.00	0.903	< 5.70	0.179	8.47	0.979	< 5.30	0.932	< 5.00	0.985	< 4.70	0.84	4.95	0.984	< 5.99	0.815	5.24	0.988	< 4.70	0.948	< 5.30
